# Measurements as given in paper PMC6212790.
# This is one part of the list. At the low end of the ranking the order means little.
# Molecular target: T1, GST-Rok-C97-191 (UniProt O34857)
# T1 sequence: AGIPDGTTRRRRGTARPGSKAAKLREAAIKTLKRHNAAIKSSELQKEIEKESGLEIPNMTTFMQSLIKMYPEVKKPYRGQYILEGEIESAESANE
# Experiment: protein binding microarray;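 note: rank score from −0.5 (least bound) to 0.5 (best bound)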
# Details: Rok is a gene silencer of Bacillus subtilis; high values mean tight binding; most listed sequences are background and not binding sites; double strand, one strand shown
row,Sequence,binding signal
1,AGGTACCT,0.322 E-score
2,CATGCCTA,-0.0308 E-score
3,GAGTGTCC,-0.137 E-score
4,AACTGACC,0.128 E-score
5,CGATCGAA,0.239 E-score
6,AGCTTGAT,-0.0768 E-score
7,GTGAGCAA,-0.0796 E-score
8,CTATCCGC,0.0493 E-score
9,AGCCAGTC,-0.118 E-score
10,AAAAAAAT,0.195 E-score
11,CTGGGATA,0.078 E-score
12,CGCCGAAG,-0.269 E-score
13,TATGTCGA,0.226 E-score
14,AGCCTGTA,-0.157 E-score
15,TGGAGAAA,0.104 E-score
16,CCATATGC,-0.0256 E-score
17,ACCGTAAT,0.157 E-score
18,CTTGGAAC,-0.103 E-score
19,ATTGCGGC,-0.0591 E-score
20,CCGTTACG,-0.106 E-score
21,GCGACGCA,0.0168 E-score
22,AATTTCGT,0.145 E-score

row,Sequence,binding signal
1,AGTATATC,0.261 E-score
2,GAGAAACA,-0.00871 E-score
3,CAAACTTC,0.0153 E-score
4,TCGGAAAA,0.0434 E-score
5,TCGTCCCA,-0.222 E-score
6,AATGGGAC,-0.164 E-score
7,AAGGAATT,0.0952 E-score
8,GACTTTAA,-0.212 E-score
9,ATGCCCAA,-0.153 E-score
10,ATGACGTA,-0.0485 E-score
11,GTCAATAA,0.0619 E-score
12,CTCCAATA,-0.143 E-score
13,AATATCGC,0.159 E-score
14,AACGACAC,0.105 E-score
15,CACGCGAA,-0.17 E-score
16,AGTCCATC,-0.159 E-score
17,ACTAAGAG,0.171 E-score
18,AGTCACTC,-0.0511 E-score
19,GACGACCA,-0.131 E-score
20,AGGTTTCG,-0.253 E-score
21,GGTGAAGA,-0.0416 E-score
22,AGCCCCCG,-0.305 E-score

row,Sequence,binding signal
1,TAGCGTAA,0.0752 E-score
2,GTCCTCCA,-0.278 E-score
3,ATAACGTA,0.143 E-score
4,CACCACAC,-0.0459 E-score
5,TCCCATCA,0.0869 E-score
6,TGAATTAA,0.0945 E-score
7,CCCAACGC,-0.254 E-score
8,ACTATCTA,0.364 E-score
9,GAAGGACA,-0.106 E-score
10,GTGCGCCA,-0.181 E-score
11,CAGGGCGG,-0.234 E-score
12,AGGGATTA,-0.0766 E-score
13,GATGTCTA,0.0496 E-score
14,GCCCAAAC,-0.284 E-score
15,CGATGATA,0.153 E-score
16,CGAACACG,-0.101 E-score
17,GATAAGGC,-0.0888 E-score
18,ATTTAGTC,0.064 E-score
19,GCCGCAGC,-0.399 E-score
20,ACATGACA,-0.00816 E-score
21,CAGGTTGG,-0.032 E-score
22,TGTTTCAA,0.117 E-score

row,Sequence,binding signal
1,ACCCTTGC,-0.283 E-score
2,ATCATGTC,-0.0597 E-score
3,GCCTCTCC,-0.327 E-score
4,CTCTCGGC,-0.156 E-score
5,CTTGGGTC,-0.162 E-score
6,AGATTATC,0.264 E-score
7,GACTACAC,-0.000838 E-score
8,CTAGAACA,0.166 E-score
9,CAATGTTC,0.0364 E-score
10,GCAGTCAA,-0.132 E-score
11,AGTGGCTG,-0.0693 E-score
12,ATAGCGAG,0.0604 E-score
13,AGACGTCT,0.0885 E-score
14,AAGTAGGA,0.0873 E-score
15,TCCACCAA,-0.197 E-score
16,AGCTTTTG,-0.0272 E-score
17,CGGCTTAC,-0.204 E-score
18,TACCAAGA,0.143 E-score
19,CCCATTTA,-0.101 E-score
20,CGGGAGTC,-0.144 E-score
